Source: article PMC4336329 (PLoS ONE, 2015)
Hit rate of the full screen: of about 310,000 compounds, about 14,000 (4.5%) showed an effect of 50% or more. The effect is printed as a negative number. Some of the results follow.

molecular target: human ether-à-go-go-related gene (hERG) potassium channel (human, UniProt Q12809); assay: primary screen, population patch clamp on CHO cells stably expressing hERG
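Also: peak tail current of the secondary pulse compared with the same well before compound.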

human ether-à-go-go-related gene (hERG) potassium channel, sequence (Q12809 whole entry, looked up): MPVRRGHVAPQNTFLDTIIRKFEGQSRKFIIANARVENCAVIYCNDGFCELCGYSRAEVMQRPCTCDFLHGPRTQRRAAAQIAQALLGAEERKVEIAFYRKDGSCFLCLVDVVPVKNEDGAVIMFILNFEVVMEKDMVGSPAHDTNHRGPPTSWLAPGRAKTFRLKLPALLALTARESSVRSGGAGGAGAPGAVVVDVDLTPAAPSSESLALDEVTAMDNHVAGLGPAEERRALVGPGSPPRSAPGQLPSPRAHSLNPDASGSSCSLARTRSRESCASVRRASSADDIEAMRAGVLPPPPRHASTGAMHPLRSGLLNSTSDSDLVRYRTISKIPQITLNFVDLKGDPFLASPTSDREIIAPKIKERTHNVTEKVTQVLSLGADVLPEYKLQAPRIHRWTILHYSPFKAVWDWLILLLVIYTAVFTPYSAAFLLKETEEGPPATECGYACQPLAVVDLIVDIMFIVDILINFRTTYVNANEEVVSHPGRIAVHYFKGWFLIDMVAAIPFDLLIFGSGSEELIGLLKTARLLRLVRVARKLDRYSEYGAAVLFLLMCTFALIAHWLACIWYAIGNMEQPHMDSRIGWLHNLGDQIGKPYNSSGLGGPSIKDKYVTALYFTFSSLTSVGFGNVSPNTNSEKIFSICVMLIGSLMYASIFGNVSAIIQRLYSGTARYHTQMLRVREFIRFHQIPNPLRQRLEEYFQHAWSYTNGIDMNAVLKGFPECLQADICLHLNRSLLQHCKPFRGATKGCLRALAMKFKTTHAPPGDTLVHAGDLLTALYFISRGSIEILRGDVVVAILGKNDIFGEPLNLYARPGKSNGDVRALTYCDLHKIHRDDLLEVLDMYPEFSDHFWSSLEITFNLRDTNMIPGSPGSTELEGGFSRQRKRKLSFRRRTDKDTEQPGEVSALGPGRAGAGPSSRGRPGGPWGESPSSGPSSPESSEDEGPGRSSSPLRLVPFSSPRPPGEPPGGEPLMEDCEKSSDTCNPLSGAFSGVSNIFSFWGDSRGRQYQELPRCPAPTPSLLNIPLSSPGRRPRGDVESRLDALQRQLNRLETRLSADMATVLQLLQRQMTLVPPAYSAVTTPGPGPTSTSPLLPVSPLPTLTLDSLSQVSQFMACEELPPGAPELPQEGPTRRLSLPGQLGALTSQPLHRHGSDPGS

Row | Structure (SMILES) | hERG current change (%, negative = inhibition) at 10uM [%]
1 | Cc1cc(C)c(OCCN(C)C)c(Cl)c1.O=C(O)C(=O)O | -21.1
2 | Cc1cc(O)cc(C)c1Cl | -2.78
3 | N#Cc1cccc(C#N)c1NCC1CCCO1 (stereo not shown) | 16.2
4 | O=S1(=O)C[C@H]2NC(=S)N(c3ccccc3)[C@H]2C1 | 20.5
5 | Cc1onc(-c2ccccc2)c1C(=O)NNC(=S)NC(=O)/C=C/c1ccccc1 | 16.2
6 | Cc1sc(NC(=O)CN2CCOCC2)nc1-c1ccc2c(c1)CCN2S(=O)(=O)c1ccccc1 | 0.0192
7 | CN1C(=O)c2cccc3c(S(=O)(=O)Nc4ccc(O)c(C(=O)O)c4)ccc1c23 | -14.5
8 | O=S1(=O)CCN(Cc2ccccc2Cl)CC1 | -11.1
9 | CCCn1c(NC(=O)c2ccc(Cl)c(S(=O)(=O)N3CCCC3)c2)nc2ccccc21 | 7.74
10 | Cc1ccccc1NC(=O)COC(=O)CCSc1ccccc1 | 25.9
11 | CCCCn1c(N)c(N(Cc2ccccc2OC)C(=O)c2ccc([N+](=O)[O-])s2)c(=O)[nH]c1=O | 3.38
12 | COc1ccc(-c2c(C)n([O-])c(C)c(C)[n+]2=O)cc1 | -4.52
13 | Nc1nnc(Cc2c[nH]c3ccccc23)s1 | -12
14 | O=c1c(C=NCc2cccs2)c(O)n(C2CCCCC2)c(=O)n1C1CCCCC1 | 8.72
15 | Cc1ccc(OCC(=O)N(Cc2ccccc2)c2ccccn2)cc1 | 14.1
16 | COC(=O)Oc1ccc(/C=N/NC(=O)CN(c2ccccc2Cl)S(C)(=O)=O)cc1OC | -14.2
17 | CC1CCN(C(=O)CCc2nnc3ccc(NCCCN4CCCC4=O)nn23)CC1 | 9.57
18 | Cc1[nH]c2ccc(-c3n[nH]c(=S)n3-c3ccc(Br)cc3)cc2c1C | 16.6
19 | OCC(Cc1ccccc1)NCc1ccccc1C(F)(F)F (stereo not shown) | -8.24
20 | O=C(NCCc1ccc(Cl)cc1)C1CCC(=O)N1C1CCCC1 (stereo not shown) | 6.58
21 | CCOC(=O)N1CCN(c2c(NCCN3CCN(c4ccccc4F)CC3)c(=O)c2=O)CC1 | 7.57
22 | O=C1Nc2ccccc2/C1=C/c1cnc[nH]1 | -6.9
23 | Cc1ccc(NC(=O)Nc2ccc3c(c2)nc(C)n3C)cc1C | -5.18
24 | CC(=O)c1ccc(NC(=O)C2CCCN2S(=O)(=O)c2cccc3cccnc23)cc1 (stereo not shown) | 7.11
25 | CC1C2CC(C(S(=O)(=O)N3CCOCC3)C2=O)C1(C)C (stereo not shown) | 2.86
